# Measured values: the supplement of paper PMC11417369
# This is one part of the list.
# System: PfAP2-HC AP2 domain (GST-tagged)
# Assay: gcPBM binding intensity (ln(normalized median fluorescence intensity)); higher = stronger DNA binding
# Method in brief: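 Probes on an Agilent 4 × 180k array were primer-extended, double-stranded and 36 bp long, taken from intergenic genomic regions, with negative controls added. GST-tagged P. falciparum DNA-binding domains from E. coli, about 25 μg on average, were applied to the array for 1 h in 1× PBS containing 1% milk, 0.2 mg/ml BSA, 0.5% salmon testes DNA and 0.03% Triton X-100. Binding intensity, obtained after Alexa488 anti-GST antibody detection and a 488 nm scan, is the highest Masliner-normalised natural-log median intensity across replicate spots of either probe orientation.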
row,Sequence,gcPBM binding intensity (ln)
1,TATATATTTTTTTCATGTACTTATTATATATATATA [XGTACX_site5321],9.78
2,ATGAATATATATATTTGTACATATGTATATATATAT [XGTACX_site7527],9.66
3,AGTATAGATGTATACACACACCAAACGTTAAAAAAA [CACACA_site7443],10.2
4,AAATACAAAATTGTTACACACATATTAATTATGACA [CACACA_site476],9.75
5,TATCATCATGTATGTACACACATACAGATATTATGT [CACACA_site4888],10.2
6,TATATTTTAAAATTATGTACATATATAGATAAATGT [XGTACX_site1349],9.56
7,ATATAAATATAGTGTGCACACACATAATATATATAT [CACACA_site8713],10.4
8,ATATATATATATAATACACACATCATAAAATATGTA [CACACA_site2518],9.79
9,AAAATAAATTGTGAAGGTACACAAATTATTATGTGG [XGTACX_site4196],9.7
10,TCGATATATAGACACACACACTTTTAATAATTAAAT [CACACA_site7726],10.4
11,TACAAACAGACATATACACACAAAAAAAAAATAAAA [CACACA_site2562],9.89
12,TTATGCAGATAAAAGAGTACATATTCGTTACATACA [XGTACX_site2849],9.6
13,AATCATATTTAGATTACACACAGTTTAAATATTTTA [CACACA_site1263],9.66
14,TATATATATATATATATATATATATATATAATATTA [XGTACX_negctrl_site558],9.29
15,TATTTAAATGGATGCACACATGCATTAAATAAAATA [CACACA_site3433],9.69
16,TGTAATGTTTACAACACACAAATTATAAATACAAAA [CACACA_site5047],9.79
17,AATATAATATAATGCACACATAAACAAAAAAAAAAA [CACACA_site783],9.98
18,GTTAGCATATTAAGTTGTACACAATTATTCTTCAAT [XGTACX_site8324],9.7
19,TGGTATTTTGATGATAAAAGGAAATTTTTTTTATAC [XGTACX_negctrl_site111],9.09

row,Sequence,gcPBM binding intensity (ln)
1,AACAAAGAAAATACATGTACAAAAAATATTAACGAA [XGTACX_site287],10
2,TTTAATACGAATGAGGCACACACCTAGTATACATGC [CACACA_site621],9.88
3,CAAAATAATATATATACACACACACCGATATATATA [CACACA_site8082],10.8
4,TTTAATTTTTTTAAAACACACAAATATATATATATA [CACACA_site3898],9.55
5,GTAATTAAAATATATACACACAAAGGCTATTAAATA [CACACA_site1011],10.1
6,TATATAAAATATTAATGTACATATAAATATATATAT [XGTACX_site6656],9.43
7,ATTTATGAAAGAAATAGTACACACATAAACATTTGT [XGTACX_site5862],9.93
8,TATTGTAATATTATATATATCTATTATGTATATAAA [CACACA_negctrl_site454],9.36
9,AATTATATATTAAAAAGTACAAGTTAATATAATATA [XGTACX_site2737],9.69
10,ATATAAAAAAATTGCACACATAAATATATACATATA [CACACA_site1218],9.86
11,GATACATAGAAACACACACACATACATATATACATA [CACACA_site3438],10.7
12,TCACAAAAAGAACATTGATATTATTATAAAATCGTC [GTGCAC_negctrl_site177],9.57
13,TTTATGTACAGACATATACACACCTCTATAATATAT [CACACA_site730],9.88
14,TTACAAAAATTTTGTTCACACATAAAAATATGTTAC [CACACA_site5740],9.57
15,ATATATTTTTCAAAATGTACAAATAATTAAATACCA [XGTACX_site875],9.44
16,TAATAAATTATTTTTTATTATTTTAATAACACTTCA [CACACA_negctrl_site3],9.61
17,ATTAATAATCGAAAGGTGCACTTTGATTTGATAACA,9.69
18,TAATTAAAATTATTTATAAATTAGTATATTTCTATA [CACACA_negctrl_site663],9.42
19,TTATTATTTTATCGTAGTACACCTAAATTATAAAAC [XGTACX_site5251],9.41

row,Sequence,gcPBM binding intensity (ln)
1,TGTAGTCTGGAGAAACGTACATAGTATCTGGTAACC [XGTACX_site4939],9.6
2,TATTTATTTTTTTGCACACATATTTTACATTTTAAT [CACACA_site3181],10.4
3,ATAACATTCATATTCACACAAAAATATACTACATAG [CACACA_site4529],9.71
4,TATATATATATATATACACACATATATATATTTATA [CACACA_site627],10.2
5,ATAAAAAAAGGACACACACACATATATATATATATA [CACACA_site5662],10.8
6,ATATAAAAAGTGTATCGTACATTTACTTATTTTATA [XGTACX_site6249],9.66
7,ATTGAAAATTGTTGCACACATAATAATTAAATATAT [CACACA_site1857],9.81
8,CACACCCACAAAAACACACACAAAGGTGTTCTTATA [CACACA_site1293],10
9,AAAAAAATCACATAAAATACTTTATTTTATATTATA [GTGCAC_negctrl_site372],9.4
10,TATATTTCTTATTTCTTATTTTGTCATCACCTTTTT [CACACA_negctrl_site1115],9.62
11,TTACATAATATATGTACACACGCAAATACTTATAAT [CACACA_site7995],9.79
12,TATAAATATGTTCTTACACACACGAATATAAATATG [CACACA_site7537],9.89
13,TACTTTTTTTTTTTTTTTTTTTTTTTTTCCCTTTTT [CACACA_negctrl_site761],9.28
14,CTTTTTTTCCATTAAGCATGCACATTCATATTTACT [TGCATGCA_site170],10
15,ATATATATATATATATGTACATATGTTAATCTGCAT [XGTACX_site1068],9.84
16,TATATATATATAGGTTGTACATTTTGATGTTTACGT [XGTACX_site5503],9.96
17,GTTTATTTATTATAATGTACATTAGTCTGAGGAGTT [XGTACX_site4035],9.64
18,TTTTATTTATATATAGTGCATATTATTATAAAACAA,9.37
19,CCATTAAGACACATTGCACACGTGCACCCATAGAAA [CACACA_site4388],9.84
